The list shows a part of the results.
These sequences were tested against T1, OsWOX13 (Oryza sativa, UniProt Q5QMM3 1-267) (assay: protein-binding microarray (RPBM); PBS, 2% BSA, 51.3 ng/ul salmon testes DNA, 50 uM zinc acetate, 200 nM TF, 25 C, 1 h; high values mean tight binding). Conditions: protein: recombinant; tags: N-terminal polyhistidine and DsRed monomer fusion (pET32a); label: CyDye5-dUTP incorporated in the synthesized complementary strand; 3' TTTTT single-stranded linker to array surface; dsDNA, one strand shown.
T1 sequence: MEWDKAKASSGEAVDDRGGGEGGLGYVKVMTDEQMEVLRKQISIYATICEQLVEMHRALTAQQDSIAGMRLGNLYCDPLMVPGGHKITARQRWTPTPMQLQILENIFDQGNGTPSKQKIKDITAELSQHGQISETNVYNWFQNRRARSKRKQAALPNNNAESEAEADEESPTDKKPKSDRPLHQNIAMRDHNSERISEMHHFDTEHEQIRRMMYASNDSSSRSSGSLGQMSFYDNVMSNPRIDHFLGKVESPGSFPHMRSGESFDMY
Summary of the method: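 The binding signal is fluorescence intensity per array feature (arbitrary units). Readings came from an Axon 4000B scanner after a washed, 2% BSA-blocked, double-stranded custom Agilent array had been incubated for 1 h at 25 °C with 200 nM protein and 50 µM zinc acetate. The protein was a Ni–NTA-purified transcription factor fused N-terminally to polyhistidine and DsRed, expressed in E. coli BL21-CodonPlus.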

| Sequence | binding signal |
| --- | --- |
| CGAGTGATTTCCTATCACTCCAGCTGTCCCGCGTGTCCCCCGGAGTCACCTAGTGCAG | 13400 fluorescence intensity (a.u.) |
| GTCATTTAATGACATTAGTTACTCCGTATTATCATGGTACCGGAGTCACCTAGTGCAG | 3550 fluorescence intensity (a.u.) |
| TTTTAAATTGCTCGATTGGATTAGCTTGAAAATGTTTGGACGGAGTCACCTAGTGCAG | 25600 fluorescence intensity (a.u.) |
| AATTAAATAAATTATAATTTATTTTATTGAGATTTGATTTCGGAGTCACCTAGTGCAG | 41300 fluorescence intensity (a.u.) |
| TTGATGGATAAGTGATTGGATGTGACTACAGAACAGTATTCGGAGTCACCTAGTGCAG | 49500 fluorescence intensity (a.u.) |
| TTTTAATTTCTAATTTTCGTTATCTGTAGACTCTAGGCTCCGGAGTCACCTAGTGCAG | 18700 fluorescence intensity (a.u.) |
| TATATTTAATTTTATATGGATTTTACAAGTTTTAGGTACTCGGAGTCACCTAGTGCAG | 5410 fluorescence intensity (a.u.) |
| ACTTCAAGCAATTAGATAATTGTGTTGACTCCCAGTGAACCGGAGTCACCTAGTGCAG | 12300 fluorescence intensity (a.u.) |
| TTCAAATTTCGATTTGTAAATTTGTCGCGGTTTTGCGCGGCGGAGTCACCTAGTGCAG | 12500 fluorescence intensity (a.u.) |
| GGCTTGTGTAATTGTTTATTAATTTCTTCCCACACTGCCCCGGAGTCACCTAGTGCAG | 24000 fluorescence intensity (a.u.) |
| TTTTAAATTTGGATGGCTGTTTTGGACCTTCAGGTTCAGGCGGAGTCACCTAGTGCAG | 3530 fluorescence intensity (a.u.) |
| TGAATTTATGATTGGCAGATTGTACAATTGTATTAGCAATCGGAGTCACCTAGTGCAG | 40400 fluorescence intensity (a.u.) |
| TTCAGATAAATTGAGGAAATACGATGAGGAAGATCTATGCCGGAGTCACCTAGTGCAG | 16700 fluorescence intensity (a.u.) |
| TTGTAATTAAATCAGTGCATGGCTAGCCCTACCAACTTCACGGAGTCACCTAGTGCAG | 22400 fluorescence intensity (a.u.) |
| TAAGTTTTAATTGAAATTTTGTTCACAAATACTCCAAATCCGGAGTCACCTAGTGCAG | 11900 fluorescence intensity (a.u.) |
| ATCCTAATCAATTGGTCTCTAACCCTTCGATATACATCTGCGGAGTCACCTAGTGCAG | 15200 fluorescence intensity (a.u.) |
| TGTAATTAGATTGTAAATCGGATGAGTAATTTAAGAGAAACGGAGTCACCTAGTGCAG | 34600 fluorescence intensity (a.u.) |
| ATCCGAATTAACGAAATGGATTGGAAGAGAAGGAAGTTGGCGGAGTCACCTAGTGCAG | 16300 fluorescence intensity (a.u.) |
| ACTAATTTAAATTTCAAAATGTTACAAATTAGAGATTAGACGGAGTCACCTAGTGCAG | 26100 fluorescence intensity (a.u.) |
| CTACAGCTAATTAAAACCGTGAAGTCACGATATCCTATAGCGGAGTCACCTAGTGCAG | 6940 fluorescence intensity (a.u.) |
| TAGGTTAATTTTCGTGTCAGATCAAACTCAGCGCTCCGTTCGGAGTCACCTAGTGCAG | 6280 fluorescence intensity (a.u.) |

| Sequence | binding signal |
| --- | --- |
| ATAGATGAATGATTTAGAAGGCATGACAAATATGATACATCGGAGTCACCTAGTGCAG | 7050 fluorescence intensity (a.u.) |
| CAATAATCTGACAAATTTCAATCCTGGCATCCATGCATTTCGGAGTCACCTAGTGCAG | 5970 fluorescence intensity (a.u.) |
| TAAATTAATTATATACTAATGAGTCGCTTAGTTTTCCGTGCGGAGTCACCTAGTGCAG | 42200 fluorescence intensity (a.u.) |
| CATCGAGATTTTAATGACTGTCGGATTATATATGGGTTAACGGAGTCACCTAGTGCAG | 6620 fluorescence intensity (a.u.) |
| TGAACAGACAGCAATTACCTTTCGTGTTCTCTTCTAGGAACGGAGTCACCTAGTGCAG | 5710 fluorescence intensity (a.u.) |
| GTTATTTACTGGAGATTGAGATACCGGCCGGCGGCCGTTGCGGAGTCACCTAGTGCAG | 3490 fluorescence intensity (a.u.) |
| GACCAATCATCAGAAGGAGAGAAATTTGCCAGATGCATGCCGGAGTCACCTAGTGCAG | 14900 fluorescence intensity (a.u.) |
| ATTATACTATGATTGTACTGTAATTACATCTGTCAAATTTCGGAGTCACCTAGTGCAG | 24500 fluorescence intensity (a.u.) |
| TCTGAAGAAAACCAATCAATTGTCCGGCCATACAAACTGCCGGAGTCACCTAGTGCAG | 13100 fluorescence intensity (a.u.) |
| CTCCAAATTACTAATTCAGAATATAGAAAGGCAAGCTCTGCGGAGTCACCTAGTGCAG | 15000 fluorescence intensity (a.u.) |
| ACTGATAGAACCTGTAAAGCCAGTACGAGGCCCACCAGCACGGAGTCACCTAGTGCAG | 4160 fluorescence intensity (a.u.) |
| ATGACGTAATTAGGCTCAAAGATTCGTCTCGCAATTTACACGGAGTCACCTAGTGCAG | 10700 fluorescence intensity (a.u.) |
| GTTGATTATTTACGTTGCATTCCTCCAGAACAATTCCTATCGGAGTCACCTAGTGCAG | 31600 fluorescence intensity (a.u.) |
| AGCAGAGAGACAGACAGACAGACAGGCAGACAGAGTGATCCGGAGTCACCTAGTGCAG | 3160 fluorescence intensity (a.u.) |
| ATAAACAACCGTGCTAATTAGGTTGAACCAAGGCAAAAGGCGGAGTCACCTAGTGCAG | 4690 fluorescence intensity (a.u.) |
| AATAATAATTTGACGTTGTTTGCATATTATTTAAAATACTCGGAGTCACCTAGTGCAG | 8590 fluorescence intensity (a.u.) |
| AGAAAATGTAATTAAGAAAATAAGTAAAGTGGATAGGGTACGGAGTCACCTAGTGCAG | 7170 fluorescence intensity (a.u.) |
| AAAGCATTCATGTTAATTTTCTCCTAACTCAAATCGAATGCGGAGTCACCTAGTGCAG | 3260 fluorescence intensity (a.u.) |
| GTATGATTGCAAATAAAATAATTTATAAATAATATATATACGGAGTCACCTAGTGCAG | 3650 fluorescence intensity (a.u.) |
| GCTCCAAAACTCTTATGATTGAATCGTTACATAGGAATTCCGGAGTCACCTAGTGCAG | 4380 fluorescence intensity (a.u.) |
| GTGAGGCCAAGATTGACTTATTGGAAGGAAGGCTTGGAAGCGGAGTCACCTAGTGCAG | 4590 fluorescence intensity (a.u.) |

Source: article PMC7819943, “Rice protein-binding microarrays: a tool to detect cis-acting elements near promoter regions in rice”
